Assay results as given in the BET-seq Pho4 binding data (Le et al. 2018).
This is one part of the list. Values were computed here from the reads of four pooled replicates and scatter widely.

These sequences were tested against T1, Pho4 (S. cerevisiae) (UniProt P07270) (assay: relative binding free energy (BET-seq); higher = weaker binding). Conditions: reference: library average.
T1 sequence: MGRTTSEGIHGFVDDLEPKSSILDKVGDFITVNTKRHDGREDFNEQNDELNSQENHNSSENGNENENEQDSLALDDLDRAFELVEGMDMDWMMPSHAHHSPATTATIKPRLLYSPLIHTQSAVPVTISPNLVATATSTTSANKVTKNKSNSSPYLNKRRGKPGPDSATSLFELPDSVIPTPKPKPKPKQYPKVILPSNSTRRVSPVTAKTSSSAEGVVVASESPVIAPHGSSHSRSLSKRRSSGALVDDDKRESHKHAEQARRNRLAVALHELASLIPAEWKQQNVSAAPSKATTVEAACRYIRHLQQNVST

Sequence	relative binding free energy [kcal/mol]
ATGGTCACGTGAAGCG	0.29
AGAGGCACGTGTGAAG	0.17
AGTTGCACGTGATAGA	0.04
TGTGACACGTGGGAAT	-0.01
ATGTGCACGTGGCATG	-0.25
TGTAGCACGTGATAAG	0.06
TAGGGCACGTGCGGGC	-0.27
GTGGTCACGTGAGGGG	0.33
TTCGTCACGTGGCGGA	0.05
GTTTCCACGTGTCAGT	0.12
AGCGTCACGTGGGCAG	-0.14
TAATTCACGTGGTTTA	0.35
GACTTCACGTGTGGGC	0.42
GTGATCACGTGGCGGC	0.09
GTAATCACGTGCGGCT	0.32
TTTTGCACGTGGGCTG	0.01
GTTTGCACGTGAGTCT	0.34
GTTCTCACGTGATTAT	0.23
TATTCCACGTGCGGGG	0.01
TTTATCACGTGTACAG	0.09
TCGGGCACGTGTAAGG	0.11
TCACGCACGTGTTGGT	-0.05
ATAGGCACGTGGTATT	-0.1

Sequence	relative binding free energy [kcal/mol]
TGGGTCACGTGAACGG	0.31
GGGGTCACGTGTAGAT	0.24
GTCAGCACGTGGGAGG	-0.18
GGAAGCACGTGGTGGG	-0.21
TGAAACACGTGTCATT	0.18
TGTGCCACGTGGTCGG	-0.37
CTGGTCACGTGCTGGT	0
GGTGTCACGTGACGGA	0.37
TCAGGCACGTGGGGGC	-0.21
ATTATCACGTGATAGG	0.28
GGTGACACGTGATTGC	0.2
TGGTGCACGTGTCGAG	0
AGTTTCACGTGATTGC	0.24
CTTAGCACGTGGGGTC	-0.24
AGCGACACGTGGTGAT	0.03
AGGTGCACGTGTATAA	0.03
AGTTGCACGTGTCACG	0.04
GGAGTCACGTGGTATT	0.09
TTTTTCACGTGGCATT	0.27
TGGATCACGTGTGACG	0.1
ATTAGCACGTGGAATT	0.05
CGGTTCACGTGCTGGG	0.18
TGCATCACGTGGGTGA	0.08

Sequence	relative binding free energy [kcal/mol]
GGTGGCACGTGTTTGT	-0.02
CGTCACACGTGGTTGG	0.08
ATGGTCACGTGTGCGA	0.03
TGCTACACGTGGGAAT	0.12
AGGGTCACGTGGACAA	0.09
AGAGTCACGTGGTAAT	-0.11
TTTTTCACGTGTTCAG	0.39
GAGGGCACGTGGGCAA	-0.21
GGAGGCACGTGGACTG	-0.1
GGTGACACGTGTGTAG	0.07
ATATTCACGTGGGTTG	0.06
GTTTACACGTGACAGT	0.34
TTTGTCACGTGGTAGG	0.04
ATTGTCACGTGTTGTA	0.04
TATGGCACGTGAAGTT	0.06
TCATTCACGTGGGTGG	0.22
AATAGCACGTGGGTAG	-0.23
GTAGCCACGTGTGTAT	-0.1
GGGATCACGTGGGTAC	0.15
TATTGCACGTGGAGGC	0
CTGTGCACGTGTTTCT	0
AAGGCCACGTGGATGT	-0.11
GCGAACACGTGGGGGA	-0.08

Sequence	relative binding free energy [kcal/mol]
GTAATCACGTGGAGCG	0.2
TTAGGCACGTGGCGAG	-0.26
ACGTGCACGTGGTGAG	-0.01
TTAGACACGTGGAGAT	-0.01
TGGGCCACGTGCCGGT	-0.12
TTTGGCACGTGATCGT	0
TAAATCACGTGGCGAG	0.23
TGTTTCACGTGTGTGC	0.35
TTTTTCACGTGCCAGT	0.12
GGGTTCACGTGGTTAA	0.27
AAAGTCACGTGGGATG	0.09
CTTGTCACGTGTAGGT	0.15
TTGAGCACGTGATTAT	0.03
TTGTGCACGTGAACGG	0.18
TTTGACACGTGATGAG	0.09
TAAGACACGTGTGTTT	0.15
AAAATCACGTGGGGTA	0.06
CGGAACACGTGGGGGC	-0.03
GTGCTCACGTGGGTTC	0.21
TAGGTCACGTGGGTAG	-0.02
CTTGTCACGTGGGTGC	-0.1
TGGTACACGTGTGATT	0.09
TGGTGCACGTGTTGTG	0.04

Sequence	relative binding free energy [kcal/mol]
GTTGACACGTGGTAAG	-0.05
TGTTTCACGTGTTGAG	0.24
TTAAACACGTGAGTGC	0.16
TATGGCACGTGCATGT	-0.19
AGTATCACGTGTTGAA	0.11
TGGCCCACGTGGTTGT	-0.17
AAGTACACGTGTGTTA	-0.07
GGTAGCACGTGACTAG	0.19
AGTGGCACGTGCTGAG	-0.1
ATAATCACGTGATGTA	0.16
GTGTTCACGTGCTCGG	0.29
GTATGCACGTGTAAAG	0.09
ATTTCCACGTGGTATG	-0.04
TATCGCACGTGTTATG	0.07
GTGTTCACGTGTGCGT	0.16
ATGTGCACGTGAAGTA	0.03
ATGTGCACGTGTTTCT	-0.07
GGGGACACGTGGGCTA	-0.05
GGAGACACGTGTAGTA	0.03
TAGGGCACGTGGGGGC	-0.26
TGCTTCACGTGTTGCG	0.24
TTCATCACGTGTTTGA	0.07
ATTATCACGTGTGTAT	0.21
